Source: the RNAGym collection of RNA variant scans (doi:10.1073/pnas.2313332121)
Variants at the background level are over-represented here.

B1: TPR 5TU (parent)
chain: GGAUCUUCUCGAUCUAACAAAAAAGACAAAUCUGCCACAAAGCUUGAGAGCAUCUUCGGAUGCAGAGGCGGCAGCCUUCGGUGGCGCGAUAGCGCCAACGUUCUCAACUAUGACACGCAAAACGCGUGCUCCGUUGAAUGGAGUUUAUCAUG

Variants of: B1
Assay: polymerase ribozyme fitness, log enrichment relative to wild type (log ratio); higher = more active; in vitro selection for triplet polymerase activity
In short: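 Only genotypes with ≥10 input reads and ≥1 read per output were kept after Illumina sequencing of input and output libraries. These libraries were PCR-built, transcribed mutants of each subunit of a heterodimeric triplet polymerase ribozyme, each put through one triplicate in vitro selection round with frozen incubation at −7 °C, gel excision of extended constructs, streptavidin-bead capture and RT-PCR. Fitness is a logarithmic ratio of genotype enrichment to wild-type enrichment, from inverse-variance-weighted replicate averages, with the logarithm in base 2.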
In the case of C10U U78G, the “polymerase ribozyme fitness (log ratio)” value is reported as ≤ -4.2.
With C10U G34A G59C G92A G133C the “polymerase ribozyme fitness (log ratio)” value was ≤ -4.2.
With G11C A39U C87U the “polymerase ribozyme fitness (log ratio)” value was ≤ -4.2.
In the case of G11C C36U A49U C57U U102G C116G A119C G141C, the “polymerase ribozyme fitness (log ratio)” value is reported as ≤ -4.2.
For C10G G59C G80A C93A, the “polymerase ribozyme fitness (log ratio)” value was ≤ -4.2.
For G11U A21C C54G C85U A89C C105A A106G G143A, the “polymerase ribozyme fitness (log ratio)” value was ≤ -4.2.
For G11C C51A A52G C79G C85G C116A, the “polymerase ribozyme fitness (log ratio)” value was ≤ -4.2.
In the case of G11U G86U C125U A150C, the “polymerase ribozyme fitness (log ratio)” value is reported as ≤ -4.2.
In the case of C10G A12U G50U U61A C99A G141U, the “polymerase ribozyme fitness (log ratio)” value is reported as ≤ -4.2.
With C10G U13G A20C A41G C51U G74A A147C the “polymerase ribozyme fitness (log ratio)” value was ≤ -4.2.
With C10U A39C G48C G94C C99A A106G G117A A119G the “polymerase ribozyme fitness (log ratio)” value was ≤ -4.2.
With A12C A19U U31G A41C C93A G141A the “polymerase ribozyme fitness (log ratio)” value was -3.98.
In the case of G11C A52G G84A G133C G141A, the “polymerase ribozyme fitness (log ratio)” value is reported as ≤ -4.2.
With G11U C54A the “polymerase ribozyme fitness (log ratio)” value was -2.47.
For G11U A29C A89C C125U, the “polymerase ribozyme fitness (log ratio)” value was -4.16.
For C10U G11U A12G A52G C93A U109A, the “polymerase ribozyme fitness (log ratio)” value was ≤ -4.2.
For C10U A12C C54A C85U C108U, the “polymerase ribozyme fitness (log ratio)” value was ≤ -4.2.
With G11A G50C U56A G58C A98U the “polymerase ribozyme fitness (log ratio)” value was ≤ -4.2.
With C10G A20U C35A C85G A142C the “polymerase ribozyme fitness (log ratio)” value was ≤ -4.2.
With C10G U13G U44A G58C A60G G88C U90A C93A A120U G136U the “polymerase ribozyme fitness (log ratio)” value was ≤ -4.2.
With G11A A19U A28U A60C G84A C103G the “polymerase ribozyme fitness (log ratio)” value was ≤ -4.2.
In the case of C10U U31A G46C A60G G83U A91U U139C, the “polymerase ribozyme fitness (log ratio)” value is reported as ≤ -4.2.
With C10G C54U G80U C87G A89G A91C U144C the “polymerase ribozyme fitness (log ratio)” value was ≤ -4.2.
With C10U U53A G67U C96G G100C A106G G126C U151G the “polymerase ribozyme fitness (log ratio)” value was ≤ -4.2.
In the case of C10U C32A G50U G94U A106U A119C G152A, the “polymerase ribozyme fitness (log ratio)” value is reported as ≤ -4.2.
With A12C A19G G58C C79A C96U the “polymerase ribozyme fitness (log ratio)” value was ≤ -4.2.
For G11U A21C C87A, the “polymerase ribozyme fitness (log ratio)” value was ≤ -4.2.
With C10G U15G A23C G62C A97C C125U the “polymerase ribozyme fitness (log ratio)” value was ≤ -4.2.
For C10U A16C A23U G62C A64G G83C U102G C114U U127G, the “polymerase ribozyme fitness (log ratio)” value was ≤ -4.2.
For G11C C38U G58U C87U A98C G136U, the “polymerase ribozyme fitness (log ratio)” value was ≤ -4.2.
In the case of G11U C27U A29C C75U G83C G126U, the “polymerase ribozyme fitness (log ratio)” value is reported as ≤ -4.2.
For G11C A19U G92A, the “polymerase ribozyme fitness (log ratio)” value was ≤ -4.2.
In the case of A12C A29U C85G G126U C132G, the “polymerase ribozyme fitness (log ratio)” value is reported as ≤ -4.2.
In the case of C10G C27U U61A C99A, the “polymerase ribozyme fitness (log ratio)” value is reported as ≤ -4.2.
For C10A G81C, the “polymerase ribozyme fitness (log ratio)” value was ≤ -4.2.
With C10U A12U C54A A60G C96G A115G G117U A147U the “polymerase ribozyme fitness (log ratio)” value was ≤ -4.2.
With G11C A20U C69G G71C G80A A91U U144G the “polymerase ribozyme fitness (log ratio)” value was ≤ -4.2.
With C10G C32G C57A G65A C87A G124A the “polymerase ribozyme fitness (log ratio)” value was ≤ -4.2.
For C10G A26U A28C C87A G88U A91C U145C, the “polymerase ribozyme fitness (log ratio)” value was ≤ -4.2.
In the case of C10G A30U C43U C57U C79G U146A, the “polymerase ribozyme fitness (log ratio)” value is reported as ≤ -4.2.
With A12C C35U A39G G59A A64C G65U A115U C116U G133U the “polymerase ribozyme fitness (log ratio)” value was ≤ -4.2.
For C10A C79A A97G A150G, the “polymerase ribozyme fitness (log ratio)” value was ≤ -4.2.
With G11C C114U U139A the “polymerase ribozyme fitness (log ratio)” value was ≤ -4.2.
For A12C A30U A37U A49U C57U U90G A91U A107U, the “polymerase ribozyme fitness (log ratio)” value was ≤ -4.2.
For C10G A19C A28C C69G U90A C95A U135C A138U, the “polymerase ribozyme fitness (log ratio)” value was ≤ -4.2.
For G11A U13G A29U C85U C103U A138U, the “polymerase ribozyme fitness (log ratio)” value was ≤ -4.2.
For G11C A52U C96U A107G G136U, the “polymerase ribozyme fitness (log ratio)” value was ≤ -4.2.
With G11A G25U A39C C87U C105G G133C the “polymerase ribozyme fitness (log ratio)” value was ≤ -4.2.
In the case of G11C A22C A29U C32G C54A G92A U102C U134G U145C, the “polymerase ribozyme fitness (log ratio)” value is reported as ≤ -4.2.
For C10U C51U C54U G94U C116G U130A U145A, the “polymerase ribozyme fitness (log ratio)” value was ≤ -4.2.
For G11A A28U C57A, the “polymerase ribozyme fitness (log ratio)” value was ≤ -4.2.
With G11U C51U C87U U101G the “polymerase ribozyme fitness (log ratio)” value was ≤ -4.2.
With C10U C38U A52U U53A U55G G59U G84A G143C the “polymerase ribozyme fitness (log ratio)” value was ≤ -4.2.
For C10U A24U C35U A91G C93G A98C C118U, the “polymerase ribozyme fitness (log ratio)” value was ≤ -4.2.
In the case of G11A G67A C79G A120G, the “polymerase ribozyme fitness (log ratio)” value is reported as ≤ -4.2.
For C10U A26U U55A A73G G92U A110C, the “polymerase ribozyme fitness (log ratio)” value was ≤ -4.2.
For C10U A23G G25U A40U U77C G86A C105A U139C, the “polymerase ribozyme fitness (log ratio)” value was ≤ -4.2.
With G11C C43G C132A G136A the “polymerase ribozyme fitness (log ratio)” value was ≤ -4.2.
For A12C A20U A22G G94A A110G C116G G141U G152A, the “polymerase ribozyme fitness (log ratio)” value was ≤ -4.2.
For C10U A91U, the “polymerase ribozyme fitness (log ratio)” value was ≤ -4.2.
For C10G A49C U109G, the “polymerase ribozyme fitness (log ratio)” value was ≤ -4.2.
For C10G A52C C93U, the “polymerase ribozyme fitness (log ratio)” value was ≤ -4.2.
With C10G A19C C27G U78C G83U G94A G117U C118A U148G the “polymerase ribozyme fitness (log ratio)” value was ≤ -4.2.
For G11A A41U A52U U55A C118U, the “polymerase ribozyme fitness (log ratio)” value was ≤ -4.2.
For C10G C87A, the “polymerase ribozyme fitness (log ratio)” value was ≤ -4.2.
For C10U A30G U33G U45A G46C C57A C75U U139A, the “polymerase ribozyme fitness (log ratio)” value was ≤ -4.2.
In the case of G11U A39U U44G C79U G84C G136U, the “polymerase ribozyme fitness (log ratio)” value is reported as ≤ -4.2.
In the case of G11U C99G C125G G136U U146G, the “polymerase ribozyme fitness (log ratio)” value is reported as ≤ -4.2.
In the case of C10U A24G C36U C54G C95A C149G, the “polymerase ribozyme fitness (log ratio)” value is reported as ≤ -4.2.
In the case of C10A C95U, the “polymerase ribozyme fitness (log ratio)” value is reported as -3.57.
With A12C A23U A24C G58A C103G U144G the “polymerase ribozyme fitness (log ratio)” value was ≤ -4.2.
In the case of C10U A49U U56G G81A G94A U146G, the “polymerase ribozyme fitness (log ratio)” value is reported as ≤ -4.2.
In the case of C10U G48C C54A C79G, the “polymerase ribozyme fitness (log ratio)” value is reported as ≤ -4.2.
For C10U C116U A147C, the “polymerase ribozyme fitness (log ratio)” value was -3.39.
In the case of C10G A21C A22U C27G C38A A39C A47U A60G C85U C95G U139G, the “polymerase ribozyme fitness (log ratio)” value is reported as ≤ -4.2.
For C10A C54A, the “polymerase ribozyme fitness (log ratio)” value was ≤ -4.2.
In the case of G11A C51U U55A U56G A142C, the “polymerase ribozyme fitness (log ratio)” value is reported as -3.56.
For C10G U33G G42C G50U G74C, the “polymerase ribozyme fitness (log ratio)” value was ≤ -4.2.
In the case of G11A A23U A37G A73U G128A U148A, the “polymerase ribozyme fitness (log ratio)” value is reported as ≤ -4.2.
In the case of C10G A41C G42C U61A A89C U90G C93U C99G A107G C116U G140C, the “polymerase ribozyme fitness (log ratio)” value is reported as ≤ -4.2.
For C10U C27U U55A G59C G84A, the “polymerase ribozyme fitness (log ratio)” value was ≤ -4.2.
With G11C C43G G58U C95A C96U C105A U111A C123G U135C the “polymerase ribozyme fitness (log ratio)” value was ≤ -4.2.
With C10G A29U C63A G140U the “polymerase ribozyme fitness (log ratio)” value was ≤ -4.2.
